# Source: the supplement of paper PMC8728848
# Some of the results follow.
# Columns and labels:
# Test in all cases: glycan array binding signal (z-score within array); higher = stronger binding
# Details in all cases: glycan notation: IUPAC condensed, linker removed
# [1] = target: Neu5Ac(a2-3)Gal(b1-3)GalNAc(b1-3)Gal(a1-4)Gal(b1-4)Glc
# In short: (§1)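 Glycan array binding is given as a within-array Z-score, which can be read as non-binding when negative. The arrays, 3228 of them, came from the Consortium for Functional Glycomics database and were retained only where the protein sequence was available. Z-scores were averaged across arrays of the same protein sequence at different concentrations or buffers and across linkers.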
# [2] = target: Neu5Ac(a2-3)Gal(b1-3)GalNAc(b1-4)[Neu5Ac(a2-3)]Gal(b1-4)Glc
# In short: as §1
# [3] = target: Neu5Ac(a2-3)Gal(b1-3)GalNAc(b1-4)[Neu5Ac(a2-8)Neu5Ac(a2-3)]Gal(b1-4)Glc
# In short: as §1
# [4] = target: Neu5Ac(a2-3)Gal(b1-3)GalNAc6S
# In short: as §1
# [5] = target: Neu5Ac(a2-3)Gal(b1-3)GlcNAc
# In short: as §1
# [6] = target: Neu5Ac(a2-3)Gal(b1-3)GlcNAc(b1-2)Man
# In short: as §1
# [7] = target: Neu5Ac(a2-3)Gal(b1-3)GlcNAc(b1-2)Man(a1-3)[GlcNAc(b1-4)][Neu5Ac(a2-3)Gal(b1-3)GlcNAc(b1-2)Man(a1-6)]Man(b1-4)GlcNAc(b1-4)GlcNAc
# In short: as §1
# [8] = target: Neu5Ac(a2-3)Gal(b1-3)GlcNAc(b1-2)Man(a1-3)[Neu5Ac(a2-3)Gal(b1-3)GlcNAc(b1-2)Man(a1-6)]Man(b1-4)GlcNAc(b1-4)GlcNAc
# In short: as §1
# [9] = target: Neu5Ac(a2-3)Gal(b1-3)GlcNAc(b1-3)Gal(b1-3)GlcNAc
# In short: as §1
# [10] = target: Neu5Ac(a2-3)Gal(b1-3)GlcNAc(b1-3)Gal(b1-4)GlcNAc
# In short: as §1
# [11] = target: Neu5Ac(a2-3)Gal(b1-3)GlcNAc(b1-3)GalNAc
# In short: as §1
# [12] = target: Neu5Ac(a2-3)Gal(b1-3)GlcNAc(b1-4)Gal(b1-4)Glc
# In short: as §1
# [13] = target: Neu5Ac(a2-3)Gal(b1-3)GlcNAc(b1-6)GalNAc
# In short: as §1
# [14] = target: Neu5Ac(a2-3)Gal(b1-3)GlcNAc6S
# In short: as §1
# [15] = target: Neu5Ac(a2-3)Gal(b1-3)[Fuc(a1-4)]GlcNAc
# In short: as §1
# [16] = target: Neu5Ac(a2-3)Gal(b1-3)[Fuc(a1-4)]GlcNAc(b1-3)Gal(b1-3)[Fuc(a1-4)]GlcNAc
# In short: as §1
# [17] = target: Neu5Ac(a2-3)Gal(b1-3)[Fuc(a1-4)]GlcNAc(b1-3)Gal(b1-4)[Fuc(a1-3)]GlcNAc
# In short: as §1
# [18] = target: Neu5Ac(a2-3)Gal(b1-3)[GlcNAc(b1-6)]GalNAc
# In short: as §1
# [19] = target: Neu5Ac(a2-3)Gal(b1-3)[Neu5Ac(a2-3)Gal(b1-4)]GlcNAc
# In short: as §1
# [20] = target: Neu5Ac(a2-3)Gal(b1-3)[Neu5Ac(a2-6)]GalNAc
# In short: as §1
# [21] = target: Neu5Ac(a2-3)Gal(b1-3)[Neu5Ac(a2-6)]GlcNAc(b1-3)[Fuc(a1-3)[Gal(b1-4)]GlcNAc(b1-6)]Gal(b1-4)Glc
# In short: as §1
# [22] = target: Neu5Ac(a2-3)Gal(b1-3)]Neu5Ac(a2-3)Gal(b1-4)]GlcNAc
# In short: as §1
# [23] = target: Neu5Ac(a2-3)Gal(b1-4)Glc
# In short: as §1
# [24] = target: Neu5Ac(a2-3)Gal(b1-4)GlcNAc
# In short: as §1
# [25] = target: Neu5Ac(a2-3)Gal(b1-4)GlcNAc(b1-2)Man
# In short: as §1
# [26] = target: Neu5Ac(a2-3)Gal(b1-4)GlcNAc(b1-2)Man(a1-3)[GlcNAc(b1-4)][Neu5Ac(a2-3)Gal(b1-4)GlcNAc(b1-2)Man(a1-6)]Man(b1-4)GlcNAc(b1-4)GlcNAc
# In short: as §1
# [27] = target: Neu5Ac(a2-3)Gal(b1-4)GlcNAc(b1-2)Man(a1-3)[Neu5Ac(a2-3)Gal(b1-4)GlcNAc(b1-2)Man(a1-6)]Man(b1-4)GlcNAc(b1-4)GlcNAc
# In short: as §1
# [28] = target: Neu5Ac(a2-3)Gal(b1-4)GlcNAc(b1-2)Man(a1-3)[Neu5Ac(a2-3)Gal(b1-4)GlcNAc(b1-2)Man(a1-6)]Man(b1-4)GlcNAc(b1-4)[Fuc(a1-6)]GlcNAc
# In short: as §1
# [29] = target: Neu5Ac(a2-3)Gal(b1-4)GlcNAc(b1-2)Man(a1-3)[Neu5Ac(a2-6)Gal(b1-4)GlcNAc(b1-2)Man(a1-6)]Man(b1-4)GlcNAc(b1-4)GlcNAc
# In short: as §1
# [30] = target: Neu5Ac(a2-3)Gal(b1-4)GlcNAc(b1-2)[Neu5Ac(a2-3)Gal(b1-4)GlcNAc(b1-4)]Man(a1-3)[GlcNAc(b1-4)][Neu5Ac(a2-3)Gal(b1-4)GlcNAc(b1-2)[Neu5Ac(a2-3)Gal(b1-4)GlcNAc(b1-6)]Man(a1-6)]Man(b1-4)GlcNAc(b1-4)GlcNAc
# In short: as §1
# [31] = target: Neu5Ac(a2-3)Gal(b1-4)GlcNAc(b1-2)[Neu5Ac(a2-3)Gal(b1-4)GlcNAc(b1-4)]Man(a1-3)[GlcNAc(b1-4)][Neu5Ac(a2-3)Gal(b1-4)GlcNAc(b1-4)Man(a1-6)]Man(b1-4)GlcNAc(b1-4)GlcNAc
# In short: as §1
# [32] = target: Neu5Ac(a2-3)Gal(b1-4)GlcNAc(b1-2)[Neu5Ac(a2-3)Gal(b1-4)GlcNAc(b1-6)]Man(a1-6)[Neu5Ac(a2-3)Gal(b1-4)GlcNAc(b1-2)Man(a1-3)]Man(b1-4)GlcNAc(b1-4)GlcNAc
# In short: as §1
# [33] = target: Neu5Ac(a2-3)Gal(b1-4)GlcNAc(b1-2)[Neu5Ac(a2-3)Gal(b1-4)GlcNAc(b1-6)]Man(a1-6)[Neu5Ac(a2-3)Gal(b1-4)GlcNAc(b1-2)Man(a1-3)][GlcNAc(b1-4)]Man(b1-4)GlcNAc(b1-4)GlcNAc
# In short: as §1
# [34] = target: Neu5Ac(a2-3)Gal(b1-4)GlcNAc(b1-3)Gal
# In short: as §1
# [35] = target: Neu5Ac(a2-3)Gal(b1-4)GlcNAc(b1-3)Gal(b1-3)GlcNAc
# In short: as §1
# [36] = target: Neu5Ac(a2-3)Gal(b1-4)GlcNAc(b1-3)Gal(b1-4)GlcNAc
# In short: as §1
# [37] = target: Neu5Ac(a2-3)Gal(b1-4)GlcNAc(b1-3)Gal(b1-4)GlcNAc(b1-2)Man(a1-3)[Neu5Ac(a2-3)Gal(b1-4)GlcNAc(b1-3)Gal(b1-4)GlcNAc(b1-2)Man(a1-6)]Man(b1-4)GlcNAc(b1-4)GlcNAc
# In short: as §1
# [38] = target: Neu5Ac(a2-3)Gal(b1-4)GlcNAc(b1-3)Gal(b1-4)GlcNAc(b1-3)Gal(b1-4)GlcNAc
# In short: as §1
# [39] = target: Neu5Ac(a2-3)Gal(b1-4)GlcNAc(b1-3)Gal(b1-4)GlcNAc(b1-3)Gal(b1-4)GlcNAc(b1-2)Man(a1-3)[Neu5Ac(a2-3)Gal(b1-4)GlcNAc(b1-3)Gal(b1-4)GlcNAc(b1-3)Gal(b1-4)GlcNAc(b1-2)Man(a1-6)]GalNAc
# In short: as §1
# [40] = target: Neu5Ac(a2-3)Gal(b1-4)GlcNAc(b1-3)Gal(b1-4)GlcNAc(b1-3)GalNAc
# In short: as §1
# [41] = target: Neu5Ac(a2-3)Gal(b1-4)GlcNAc(b1-3)Gal(b1-4)GlcNAc(b1-3)[Neu5Ac(a2-3)Gal(b1-4)GlcNAc(b1-3)Gal(b1-4)GlcNAc(b1-6)]GalNAc
# In short: as §1
# [42] = target: Neu5Ac(a2-3)Gal(b1-4)GlcNAc(b1-3)Gal(b1-4)GlcNAc(b1-6)[Gal(b1-3)]GalNAc
# In short: as §1
# [43] = target: Neu5Ac(a2-3)Gal(b1-4)GlcNAc(b1-3)Gal(b1-4)[Fuc(a1-3)]GlcNAc
# In short: as §1
# [44] = target: Neu5Ac(a2-3)Gal(b1-4)GlcNAc(b1-3)GalNAc
# In short: as §1
# [45] = target: Neu5Ac(a2-3)Gal(b1-4)GlcNAc(b1-3)[Neu5Ac(a2-3)Gal(b1-4)GlcNAc(b1-6)]GalNAc
# In short: as §1
# [46] = target: Neu5Ac(a2-3)Gal(b1-4)GlcNAc(b1-6)GalNAc
# In short: as §1
binder,measurement,setting,value
"OVGAL11 (Ovis aries), AAF64320 (protein) MDSLPNPYLQSVSLTVCYMVKIKANLLSAFGKNPELQVDFGTGTGQGGNIPFRFWYCDGMVVMNTFTDGSWQKEEKVLTDAFVPGQPFELQFLVLEKEYQVFVKNKPICQFAHRLPLQSVKMLDVRGDIVLTSVDTL",glycan array binding signal (z-score),[1],-0.299
same,glycan array binding signal (z-score),[2],-0.203
same,glycan array binding signal (z-score),[3],-0.069
same,glycan array binding signal (z-score),[4],-0.064
same,glycan array binding signal (z-score),[5],-0.195
same,glycan array binding signal (z-score),[6],-0.053
same,glycan array binding signal (z-score),[7],-0.08
same,glycan array binding signal (z-score),[8],-0.043
same,glycan array binding signal (z-score),[9],-0.086
same,glycan array binding signal (z-score),[10],-0.233
same,glycan array binding signal (z-score),[11],-0.121
same,glycan array binding signal (z-score),[12],-0.033
same,glycan array binding signal (z-score),[13],-0.132
same,glycan array binding signal (z-score),[14],-0.316
same,glycan array binding signal (z-score),[15],0.028
same,glycan array binding signal (z-score),[16],-0.074
same,glycan array binding signal (z-score),[17],0.055
same,glycan array binding signal (z-score),[18],-0.061
same,glycan array binding signal (z-score),[19],-0.275
same,glycan array binding signal (z-score),[20],0.032
same,glycan array binding signal (z-score),[21],-0.089
same,glycan array binding signal (z-score),[22],-0.02
same,glycan array binding signal (z-score),[23],-0.143
same,glycan array binding signal (z-score),[24],-0.182
same,glycan array binding signal (z-score),[25],-0.024
same,glycan array binding signal (z-score),[26],-0.064
same,glycan array binding signal (z-score),[27],-0.054
same,glycan array binding signal (z-score),[28],-0.09
same,glycan array binding signal (z-score),[29],-0.121
same,glycan array binding signal (z-score),[30],-0.11
same,glycan array binding signal (z-score),[31],-0.058
same,glycan array binding signal (z-score),[32],-0.037
same,glycan array binding signal (z-score),[33],-0.112
same,glycan array binding signal (z-score),[34],-0.09
same,glycan array binding signal (z-score),[35],-0.12
same,glycan array binding signal (z-score),[36],-0.296
same,glycan array binding signal (z-score),[37],-0.089
same,glycan array binding signal (z-score),[38],-0.021
same,glycan array binding signal (z-score),[39],-0.033
same,glycan array binding signal (z-score),[40],-0.013
same,glycan array binding signal (z-score),[41],-0.068
same,glycan array binding signal (z-score),[42],-0.068
same,glycan array binding signal (z-score),[43],-0.156
same,glycan array binding signal (z-score),[44],-0.05
same,glycan array binding signal (z-score),[45],-0.097
same,glycan array binding signal (z-score),[46],-0.049
